This is a selection; strong and weak results do not stand in their true shares. For part of these data: At the low end of the ranking the order means little. The list shows a part of the results. For part of these data: Construct or isoform of the protein are uncertain.
What was measured:
Test in all cases: universal protein binding microarray (PBM)
Settings in all cases: transcription factors of Arabidopsis thaliana; high values mean tight binding; most listed sequences are background and not binding sites; double strand, one strand shown
[1] = molecular target: T1, GST-ANAC092(1-176) (UniProt Q9FKA0)
T1 sequence: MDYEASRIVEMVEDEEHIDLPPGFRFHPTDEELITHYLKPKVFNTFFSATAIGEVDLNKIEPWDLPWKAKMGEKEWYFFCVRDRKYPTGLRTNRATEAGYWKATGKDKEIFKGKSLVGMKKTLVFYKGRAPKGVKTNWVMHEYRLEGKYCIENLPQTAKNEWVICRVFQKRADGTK

[2] = molecular target: GST-NTL6(1-168) (UniProt Q9SCK6)
[3] = molecular target: T2, GST-ANAC019 NAC domain (UniProt Q9C932)
T2 sequence: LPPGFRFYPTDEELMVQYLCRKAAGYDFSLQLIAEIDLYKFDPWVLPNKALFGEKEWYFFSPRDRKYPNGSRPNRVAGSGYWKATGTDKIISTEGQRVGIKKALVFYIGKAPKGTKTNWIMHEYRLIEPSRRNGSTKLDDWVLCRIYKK

[4] = molecular target: T3, GST-ANAC055(1-171) (UniProt Q9LDY8)
T3 sequence: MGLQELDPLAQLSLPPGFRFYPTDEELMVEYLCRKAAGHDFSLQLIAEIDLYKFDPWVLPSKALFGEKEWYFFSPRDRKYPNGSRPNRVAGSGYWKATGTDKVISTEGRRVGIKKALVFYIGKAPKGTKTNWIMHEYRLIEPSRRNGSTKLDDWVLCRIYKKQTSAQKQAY

[5] = molecular target: T4, GST-ATAF1 NAC domain (UniProt Q39013)
T4 sequence: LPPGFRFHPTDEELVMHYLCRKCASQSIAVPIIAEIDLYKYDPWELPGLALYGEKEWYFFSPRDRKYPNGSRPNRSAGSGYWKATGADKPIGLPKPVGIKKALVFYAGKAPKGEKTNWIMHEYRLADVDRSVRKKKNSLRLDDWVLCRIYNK

[6] = molecular target: T5, GST-NAP(1-166) (UniProt O49255)
T5 sequence: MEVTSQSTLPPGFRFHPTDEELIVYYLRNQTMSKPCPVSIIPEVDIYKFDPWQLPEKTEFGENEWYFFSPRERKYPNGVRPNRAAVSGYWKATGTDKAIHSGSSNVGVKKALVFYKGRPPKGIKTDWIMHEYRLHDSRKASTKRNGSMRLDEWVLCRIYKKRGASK

[7] = molecular target: T6, GST-NTL8 NAC domain (UniProt Q9XIN7)
T6 sequence: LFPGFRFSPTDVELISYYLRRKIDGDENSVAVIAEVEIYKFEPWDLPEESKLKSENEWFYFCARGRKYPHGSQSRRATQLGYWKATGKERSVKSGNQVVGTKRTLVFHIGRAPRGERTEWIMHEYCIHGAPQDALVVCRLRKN

[8] = molecular target: T7, GST-SND1(1-203) (UniProt Q9LPI7)
T7 sequence: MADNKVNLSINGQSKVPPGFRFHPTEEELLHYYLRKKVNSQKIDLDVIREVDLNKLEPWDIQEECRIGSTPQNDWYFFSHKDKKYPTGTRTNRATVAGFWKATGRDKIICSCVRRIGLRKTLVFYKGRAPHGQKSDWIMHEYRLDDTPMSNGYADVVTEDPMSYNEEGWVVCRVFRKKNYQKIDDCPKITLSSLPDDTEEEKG

[9] = molecular target: T8, GST-VND3 NAC domain (UniProt Q9FH59)
T8 sequence: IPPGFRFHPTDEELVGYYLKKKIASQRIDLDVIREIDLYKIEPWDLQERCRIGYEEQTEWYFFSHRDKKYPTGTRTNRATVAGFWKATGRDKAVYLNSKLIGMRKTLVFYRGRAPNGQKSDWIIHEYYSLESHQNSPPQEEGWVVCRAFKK

[10] = molecular target: T9, GST-VND7 NAC domain (UniProt Q9C8W9)
T9 sequence: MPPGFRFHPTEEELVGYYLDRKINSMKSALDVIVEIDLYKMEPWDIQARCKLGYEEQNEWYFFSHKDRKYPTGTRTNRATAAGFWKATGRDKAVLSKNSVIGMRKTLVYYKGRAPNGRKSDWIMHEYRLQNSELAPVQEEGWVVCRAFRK

[11] = molecular target: T10, GST-VOZ2 (Arabidopsis thaliana) (UniProt Q9SLB9)
T10 sequence: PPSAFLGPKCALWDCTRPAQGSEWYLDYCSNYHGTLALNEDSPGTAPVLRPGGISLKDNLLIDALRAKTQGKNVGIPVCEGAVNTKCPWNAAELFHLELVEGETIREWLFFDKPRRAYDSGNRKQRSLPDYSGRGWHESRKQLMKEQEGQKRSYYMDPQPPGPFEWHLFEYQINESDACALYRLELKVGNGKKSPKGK

[12] = molecular target: T11, GST-ANAC092(1-285) full length (UniProt Q9FKA0)
T11 sequence: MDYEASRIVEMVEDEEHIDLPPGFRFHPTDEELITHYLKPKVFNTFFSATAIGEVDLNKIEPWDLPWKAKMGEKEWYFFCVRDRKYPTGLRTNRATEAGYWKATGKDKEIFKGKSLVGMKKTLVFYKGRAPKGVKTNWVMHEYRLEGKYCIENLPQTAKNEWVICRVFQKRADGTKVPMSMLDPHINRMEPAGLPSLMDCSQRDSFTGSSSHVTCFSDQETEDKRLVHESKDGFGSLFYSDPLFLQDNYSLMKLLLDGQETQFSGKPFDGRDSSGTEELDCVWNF

[13] = molecular target: T12, GST-NST2(1-184) (UniProt Q9M274)
T12 sequence: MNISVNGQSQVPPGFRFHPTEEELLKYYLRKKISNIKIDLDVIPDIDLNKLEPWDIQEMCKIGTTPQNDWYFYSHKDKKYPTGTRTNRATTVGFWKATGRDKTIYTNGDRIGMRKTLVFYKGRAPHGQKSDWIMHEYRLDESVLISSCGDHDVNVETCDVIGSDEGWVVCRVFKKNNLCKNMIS

UniProt Q9SCK6, sequence (Q9SCK6 1-168): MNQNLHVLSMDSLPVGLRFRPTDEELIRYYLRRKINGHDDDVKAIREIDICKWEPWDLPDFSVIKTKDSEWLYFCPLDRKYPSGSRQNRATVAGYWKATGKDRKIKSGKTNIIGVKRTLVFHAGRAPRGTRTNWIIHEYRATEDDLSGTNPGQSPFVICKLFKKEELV

Row | Sequence | binding signal [1] | binding signal [2] | binding signal [3] | binding signal [4] | binding signal [5] | binding signal [6] | binding signal [7] | binding signal [8] | binding signal [9] | binding signal [10] | binding signal [11] | binding signal [12] | binding signal [13]
1 | GTCGTTGA | 0.0276 E-score | 0.0069 E-score | -0.0369 E-score | -0.0293 E-score | -0.0556 E-score | 0.0448 E-score | -0.0726 E-score | 0.0146 E-score | -0.0502 E-score | 0.0176 E-score | -0.0097 E-score |  | 
2 | TACGGTCA | -0.23 E-score | -0.0247 E-score | -0.154 E-score | -0.0946 E-score | -0.0772 E-score | 0.0976 E-score | -0.0853 E-score | -0.0743 E-score | -0.0389 E-score | -0.0647 E-score | 0.0366 E-score | -0.0413 E-score | -0.088 E-score
3 | ACCAGTCA | -0.00282 E-score | -0.0586 E-score | -0.127 E-score | -0.0788 E-score | -0.0635 E-score | -0.0326 E-score | -0.136 E-score | -0.0731 E-score | -0.142 E-score | -0.139 E-score | -0.0823 E-score | -0.14 E-score | -0.132 E-score
4 | GCTTTGAC | -0.0509 E-score | -0.093 E-score | -0.0353 E-score | -0.0701 E-score | -0.0279 E-score | -0.103 E-score | -0.00153 E-score | 0.00287 E-score | -0.0568 E-score | -0.13 E-score | -0.0306 E-score | -0.0731 E-score | -0.0426 E-score
5 | CAATTGAC | -0.002 E-score | -0.0864 E-score | -0.154 E-score | 0.0141 E-score | 0.0271 E-score |  | -0.0119 E-score | -0.0443 E-score | 0.0467 E-score | -0.0518 E-score | -0.0181 E-score | -0.0319 E-score | -0.00276 E-score
6 | AGGTCGTC | -0.0225 E-score | -0.145 E-score | -0.00751 E-score | -0.137 E-score | -0.183 E-score | -0.0722 E-score | -0.0386 E-score | -0.0595 E-score | -0.191 E-score | -0.174 E-score | -0.139 E-score | -0.0551 E-score | -0.101 E-score

Reference: article PMC4081100
